Test results as given in PubChem BioAssay AID1508624 (National Center for Advancing Translational Sciences (NCATS), 2021).
The campaign covered roughly 48,000 compounds. About 120 (0.25%) were called active. About 4% were inconclusive and are not listed. The call rests on the fitted dose curve; in most records, active means well fitted activation curve with a large enough effect; inconclusive means small, poorly fitted or top-dose-only effect, or another doubt; inactive means no such curve, though single readings can be large or run the other way. The list shows a part of the results.

assay: Primary qHTS for Identification of Small Molecule Activators of Huntingtin-Antisense Promoter Activity; details: HEK293 HTT-AS promoter firefly luciferase reporter (activity 0% = vehicle and -100% = no light), 24 h; series mostly up to 57.5 µM; activity change, positive = activation: at the top concentration; further: nearly all actives have a fitted effect of over 55% in size
Method in brief: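 HEK293 Fluc reporter, 2,500 cells/well, 24 h pre-culture; cpds up to 57.5 uM final, 24 h 37 degrees C; Dual-Glo, 10 min RT; normalized vehicle = 0%, zero RLU = -100%.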

Activity change, positive = activation, inactive:
COc1ccc(CCNC(=O)c2cn(C)c3ccc(S(=O)(=O)N(C)C)cc3c2=O)cc1OC -6.66%, CC(C)c1ccc(NC(=O)Cn2nnc(C(=O)NCc3ccc(Cl)cc3)c2N)cc1 -3.4%, CCN(C(=O)c1cn(CC(C)C)c(=O)c2cc(OC)c(OC)cc12)c1cc(OC)ccc1OC -13%, COc1ccc2c(c1)sc1ncc(C(=O)NCc3cccc(C)c3)c(=O)n12 -12.7%, CCc1ccc(C(=O)c2cn(CC(=O)Nc3cc(F)ccc3F)c3nc(C)ccc3c2=O)cc1 -7.09%, COc1ccccc1NC(=O)c1sc2nc3c(cc2c1N)CN(Cc1ccccc1)CC3 -22.1%, CCNC(=O)c1c(NC(=O)c2nc(S(=O)(=O)CC)ncc2Cl)sc2c1CCCC2 -17.7%, CCOC(=O)c1c(C)c(-c2ccccc2)n(CC(=O)NCCc2cccc(C)c2)c1C -11.8%, COCCn1c(C)cc(O)c(C(c2ccc(F)cc2)N2CCN(c3ccccc3)CC2)c1=O (stereo unspecified) 8.3%, COc1ccc(CC(=O)NCCS(=O)(=O)N2CCN(c3ccc(F)cc3)CC2)cc1OC -15.8%, O=C(CSc1nc(=O)[nH]c2c1CCCC2)NCc1ccc(F)cc1 -0.815%, N#Cc1ccccc1Cn1cnc2nc3c(cc2c1=O)CCCC3 5.22%, CCc1nc(C)cn1S(=O)(=O)c1ccc(Cl)c(Cl)c1OC -89.3%, CCCOc1ccc(C(=O)Nc2ccc(NC(=O)c3ccccc3)c(C)c2)cc1 -8.36%, Cc1cccc(CC(=O)NCc2nc3cccnc3n2Cc2ccc(F)cc2)c1 -15.7%, CCc1cc(=O)[nH]c(SCc2nc(-c3ccccc3)no2)n1 -31.1%, Cc1nnc2c(N3CCN(c4ccccc4F)CC3)nc3ccc(C(=O)c4ccccc4)cc3n12 -1.22%, Cc1cccc(C(=O)NC2=NC(c3ccc(Cl)cc3)CC(=O)N2)c1 (stereo unspecified) -12.7%, COc1ccc(NS(=O)(=O)c2ccc3[nH]c4c(c3c2)CCCCC4)cc1 -6%, CC(C)c1ccc2occ(CC(=O)N(Cc3ccc(F)cc3)C3CCS(=O)(=O)C3)c2c1 (stereo unspecified) -44.5%, COc1ccc(CCNC(=O)c2ccc3c(c2)ncn3-c2ccc(C(C)C)cc2)cc1OC -33.8%, O=C(Nc1ccccc1)N(Cc1cccc(Cl)c1)c1ccccn1 -8.13%, CC(=O)c1ccc(N2CCN(C(=O)Nc3ccc(C(C)C)cc3)CC2)cc1 -58.5%, CCCCN1C[C@H](O)[C@@H](O)[C@H](O)[C@H]1CO -8.49%, Cn1c2ccccc2c2cnn(CC(=O)NCCCN3CCN(c4ccccc4F)CC3)c(=O)c21 -11.4%, COc1ccc(NC(=O)c2ccco2)cc1NC(=O)c1c(OC)cccc1OC -5.52%, COc1ccc(NC(=O)CCc2nnc3n(Cc4ccc(C)cc4)c(=O)c4ccccc4n23)cc1 -16.2%, CCc1ccccc1NC(=O)Cn1ccn(Cc2ccccc2)c(=O)c1=O -15.1%, CC1CCCCN1C(=O)CCS(=O)(=O)c1cc2c(cc1Cl)NC(=O)CO2 (stereo unspecified) -8.37%, COc1cccc(CNCCCSc2nnnn2C)c1OC 3.48%, CCS(=O)(=O)c1nc(S(=O)(=O)c2ccc(C)cc2)c(NC)s1 -17.8%, Cc1cccc(C(=O)N2CCc3cc(CNS(=O)(=O)c4ccc(F)c(Cl)c4)ccc32)c1 -22.3%, CCC(=O)N1CCc2cc(S(=O)(=O)Nc3cc(C)ccc3OC)ccc21 -23.4%, Cc1ccc(-n2c(SCC(=O)c3ccccc3)nc3c([nH]c4ccccc43)c2=O)cc1 -14.5%, COc1ccc(-c2csc3ncnc(Nc4cc(OC)cc(OC)c4)c23)cc1 -44.9%, c1ccc2c(c1)CCCC2C1=NCCN1 (stereo unspecified) -1.8%, CC(C)C(=O)Nc1ccc2nc(SCC(=O)N3CCc4ccccc43)sc2c1 -48.4%, COc1ccccc1CC(=O)Nc1ccc2nc(Nc3cccc(Cl)c3)cc(C)c2c1 -31.2%, COc1ccccc1CNC(=O)c1ccc2c(c1)N(Cc1c(F)cccc1Cl)C(=O)CS2 -37.3%, Cc1cc(C)cc(NC(=O)c2cc(S(=O)(=O)N3CCc4ccccc43)cn2C)c1 -27.4%, O=C(Nc1ccc2oc(-c3cccc(F)c3)nc2c1)c1ccc2ccccc2c1 7.23%, CC(C)c1ccc(NC(=O)Cn2cc(S(=O)(=O)Cc3ccccc3Cl)c3ccccc32)cc1 -45.7%, COc1cccc(NC(=O)Cn2c(=O)n(CCCCC(=O)NCc3ccccc3Cl)c(=O)c3ccccc32)c1 -24.6%, CCCCC(Sc1nc2cc3c(cc2c(=O)n1CCCC(=O)NCc1ccc2c(c1)OCO2)OCO3)C(=O)OCC (stereo unspecified) -14.5%, O=C(CSc1ncc(S(=O)(=O)c2ccc(Br)cc2)c(=O)[nH]1)Nc1ccc2c(c1)OCCO2 -4.75%, CCOc1ccccc1N1CCN(S(=O)(=O)c2ccc(C3CCCCC3)cc2)CC1 16.3%, CC1CCN(C(=O)CSc2nc3ccccc3nc2Cc2ccccc2)CC1 -28.6%, CCOc1ccc(CN2C(=O)c3ccccc3C2C(=O)NCCc2ccc(OC)c(OC)c2)cc1 (stereo unspecified) -14%, COc1ccccc1NC(=O)C1=C(C)Nc2ncnn2C1c1cccn1C (stereo unspecified) -5.8%, CCOC(=O)c1c(S(=O)(=O)N2CCC(C(=O)Nc3ccc(F)cc3F)CC2)c(C)n(C)c1C -11.4%, COc1ccc(CNC(=O)Cc2c(C)c3cc4c(C)coc4c(C)c3oc2=O)cc1OC -7.62%, Cc1c(C)n(Cc2ccc(-c3ccccc3C(=O)O)cc2)c2ccc(C(=O)N[C@@H](C)c3ccc([N+](=O)[O-])cc3)cc12 -28.3%, CCOc1ccc(CNS(=O)(=O)c2ccc3c(c2)CCCN3C(C)=O)cc1 -22.9%, Cc1ccc(C)c(NC(=O)C2CCN(c3cc(C)nc4c(-c5ccc(Cl)cc5)c(C)nn34)CC2)c1 1.78%, COc1cccc(NC(=O)Cn2cc(C(=O)c3ccco3)c3ccccc32)c1 -16.5%, COc1ccc(-n2cc(C(=O)Oc3cc(C)cc(C)c3)c3ccccc3c2=O)cc1 -10.8%, COc1cccc(C(=O)Oc2c(Sc3ccc(C)cc3)c(C)nn2C(C)(C)C)c1OC -42.9%, COc1ccc(NC(=O)c2cc(S(=O)(=O)N3CCCC3)ccc2OC)cc1 7.07%, CC(C)Cc1nn2c(=O)cc(COC(=O)c3ccc(NC(=O)C4CCCCC4)cc3)nc2s1 -1.22%, CCOc1ccccc1NC(=O)c1ccc(F)c(S(=O)(=O)N2CCN(c3ccc(F)cc3)CC2)c1 -22.4%, CCOc1ccc(C(=O)NCC(c2cccs2)S(=O)(=O)c2ccccc2)cc1 (stereo unspecified) -23.6%
